In all, about 310,000 compounds went through this assay and about 2,200 (0.71%) showed an effect of 50% or more. The effect is printed as a negative number. This is one part of the list.
Target: human ether-à-go-go-related gene (hERG) potassium channel (human, UniProt Q12809)
Experiment: primary screen, population patch clamp on CHO cells stably expressing hERG

Sequence of human ether-à-go-go-related gene (hERG) potassium channel (Q12809 whole entry, looked up): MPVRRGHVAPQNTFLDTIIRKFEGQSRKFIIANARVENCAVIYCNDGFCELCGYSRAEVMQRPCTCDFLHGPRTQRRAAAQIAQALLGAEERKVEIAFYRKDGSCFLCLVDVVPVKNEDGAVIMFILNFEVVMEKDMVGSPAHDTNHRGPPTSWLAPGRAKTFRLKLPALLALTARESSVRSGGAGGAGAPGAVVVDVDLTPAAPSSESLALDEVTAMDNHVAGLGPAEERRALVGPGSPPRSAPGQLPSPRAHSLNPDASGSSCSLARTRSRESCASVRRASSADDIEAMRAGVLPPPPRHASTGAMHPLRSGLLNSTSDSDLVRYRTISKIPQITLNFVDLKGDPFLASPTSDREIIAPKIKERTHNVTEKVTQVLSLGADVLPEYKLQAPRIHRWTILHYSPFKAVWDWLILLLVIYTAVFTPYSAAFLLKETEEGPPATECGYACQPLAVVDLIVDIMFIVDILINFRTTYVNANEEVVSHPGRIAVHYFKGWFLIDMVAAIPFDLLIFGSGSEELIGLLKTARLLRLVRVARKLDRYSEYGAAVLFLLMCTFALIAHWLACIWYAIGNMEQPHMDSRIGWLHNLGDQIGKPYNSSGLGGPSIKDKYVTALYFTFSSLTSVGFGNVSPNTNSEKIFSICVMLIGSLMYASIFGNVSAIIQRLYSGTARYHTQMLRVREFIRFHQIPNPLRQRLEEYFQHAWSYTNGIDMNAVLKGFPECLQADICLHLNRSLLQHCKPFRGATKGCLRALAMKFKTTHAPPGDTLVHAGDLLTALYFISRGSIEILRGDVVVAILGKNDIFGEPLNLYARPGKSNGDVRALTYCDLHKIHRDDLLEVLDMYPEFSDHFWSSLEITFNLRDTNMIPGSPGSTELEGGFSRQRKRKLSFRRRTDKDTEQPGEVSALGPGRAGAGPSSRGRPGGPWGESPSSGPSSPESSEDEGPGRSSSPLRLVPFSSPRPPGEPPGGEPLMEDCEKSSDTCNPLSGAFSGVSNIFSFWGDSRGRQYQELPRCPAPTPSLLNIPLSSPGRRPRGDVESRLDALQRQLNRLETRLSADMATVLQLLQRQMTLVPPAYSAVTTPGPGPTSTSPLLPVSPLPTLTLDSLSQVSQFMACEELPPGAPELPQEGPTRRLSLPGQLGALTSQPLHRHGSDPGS

Row | Structure (SMILES) | hERG current change (%, negative = inhibition) at 1uM
1 | O=C(CCn1c2c(c3ccccc31)CCCC2)NNC(=O)c1ccccc1Cl | 11.1%
2 | CCOC(=O)C1=C(CN2CCSCC2)NC(=O)NC1c1cc(C)ccc1C (stereo not drawn) | 7.06%
3 | CCN(CC(=O)Nc1ccccc1C(F)(F)F)C(=O)CCS(=O)(=O)c1ccc(C)cc1 | 10.3%
4 | Cc1cccc(-c2nc3ccccc3c(=O)n2-n2cccc2)c1 | 1.91%
5 | C/C(=N/NC(=O)CNC(=O)c1cccnc1)c1ccc(Cl)c(Cl)c1 | 7.14%
6 | O=C(O)C1=C[C@@H](C2CCCCC2)C[C@@H](OCc2ccc(CO)cc2)O1 | 11.1%
7 | CC(=O)Nc1nc(C)c(C(C)C)s1 | 2.06%
8 | CS(=O)(=O)N(CC(=O)N1CCC(C(N)=O)CC1)C1CCCCC1 | 7.65%
9 | CC(NC(=O)CCc1ccc(S(=O)(=O)NC2CCCCC2)cc1)c1ccccc1 (stereo not drawn) | 10.5%
10 | Cc1ccc(CS(=O)Cc2ccc(C(=O)NCC(C)c3ccccc3)o2)cc1 (stereo not drawn) | 8.71%
11 | O=Cc1ccc2noc(-c3ccc(F)cc3)c2c1 | -14.2%
12 | Cc1ncccc1C(=O)N1CCCC(C(=O)c2ccc3c4c(cccc24)CC3)C1 (stereo not drawn) | 10.2%
13 | O=C(COc1ccc2c(-c3ccccc3)cc(=O)oc2c1)NCc1ccccn1 | 0.948%
14 | O=C(NC1CCS(=O)(=O)C1)/C(=C/c1ccc(Cl)cc1)NC(=O)c1ccccc1 (stereo not drawn) | -22.1%
15 | O=C(CNC(=O)c1ccc(-c2ccccc2)cc1)OCc1ccc(Cl)cc1 | 9.75%
16 | CC1CCCCN1C(=S)NC(=O)c1ccccc1 (stereo not drawn) | 6.73%
17 | CCOC(=O)Cc1csc(NC(=O)CN2CCOCC2)n1 | 8.37%
18 | O=C(NCC(c1ccco1)N1CCN(c2ccc(F)cc2)CC1)C(=O)NC1CCCC1 (stereo not drawn) | 17.4%
19 | Cc1ccc(-c2nnc3n2CCCCC3)cc1 | 0.609%
20 | CN(Cc1ccccc1)C(=O)CCSc1nc(-c2ccc3c(c2)OCO3)cc(C(F)(F)F)n1 | 11.4%
21 | COc1cccc2c1OCC(CN1CCN(C3CCCCC3)C(CCO)C1)=C2 (stereo not drawn) | -9.09%
22 | CCCCNC(=S)N/N=C/c1ccccc1F | 0.387%
23 | O=[N+]([O-])c1ccc(S(=O)(=O)N/N=C/c2ccsc2)cc1 | 0.0881%

Row | Structure (SMILES) | hERG current change (%, negative = inhibition) at 1uM
24 | Oc1ccc2c(c1)oc1cc(O)ccc12 | 18.6%
25 | CCOC(=O)C(C)Oc1ccc(OCc2ccccc2)cc1 (stereo not drawn) | 15%
26 | COC(=O)CC[C@@H](C(=O)O)N1C(=O)c2ccccc2C1=O | 8.51%
27 | O=C(O)Cn1cccc1C(=O)c1ccccc1 | -23.4%
28 | COc1cccc(-c2ccc(-c3noc(-c4ccccc4F)n3)c(OC)n2)c1 | -2.17%
29 | NNC(=O)c1cnn(-c2ccccc2)c1C(F)(F)F | 19.8%
30 | CCn1cc(C(=O)O)c(=O)c2cc(F)c(N3CCN(C(=S)NC(=O)c4cccc(C)c4)CC3)cc21 | 8.59%
31 | CC12CN(C(=O)c3ccc([N+](=O)[O-])cc3)CC(C)(CN(C(=O)c3ccc([N+](=O)[O-])cc3)C1)C2=O | 11.4%
32 | CCc1noc(C)c1C(=O)Nc1nc2c(C)cccc2s1 | 8.71%
33 | CCN(CC)S(=O)(=O)c1ccc(N2CCOCC2)c(NC(=O)CNCCc2ccccc2)c1.O=C(O)C(=O)O | 1.29%
34 | O=C(c1ccccc1)c1ccncc1 | 13.5%
35 | C=C(C)Cc1c(C)c(C#N)c2nc3ccccc3n2c1N1CCCCC1 | 5.41%
36 | C=CCn1c(=O)c(C(=O)Nc2ncccc2O)c(O)c2ccccc21 | 10.2%
37 | CCN(Cc1nc2ccccc2c(=O)[nH]1)Cc1cc(=O)oc2cc(OC)ccc12 | -25.6%
38 | C=CCSc1cc(C)nc2c(-c3ccccc3)cnn12 | 12.9%
39 | CC(=O)Nc1ccc(NC(=O)Cn2c(-c3ccc(F)cc3)cnc2SCC(=O)Nc2c(C)cccc2C)cc1 | 8.7%
40 | Cc1ccc(NC(=O)CCn2cnc3cc(C)c(C)cc32)cc1 | 8.13%
41 | Cn1cc2cc([N+](=O)[O-])ccc2n1 | 3.92%
42 | CN(Cc1ccccc1)S(=O)(=O)c1ccc(Cl)c(C(=O)O)c1 | 10.8%
43 | Cc1cc2ccccc2nc1SCC(=O)NC1CCCC1 | 9.91%
44 | N=C1/C(=C\c2ccc(OC(=O)c3ccc(F)cc3)cc2)C(=O)N=C2SC(N3CCCC3)=NN12 | 9.37%
45 | O=C(Oc1ccc2c(=O)c(Oc3ccc4ccccc4c3)coc2c1)c1ccco1 | 3.86%
